pKi: −log10 of the molar value.
Molecular target: WDR5 (Homo sapiens, UniProt P61964)
Experiment: biochemical
Format: binding
Details: WDR5-His tag (Δ23, residues 24-334) 2 nM; 10mer-Thr-FAM probe 150 nM; Tb-anti-HIS 1 nM; 60 min, room temperature; read-out: Ki for Inhibition of WDR5 by TR-FRET assay

Row | SMILES | pKi
1 | COc1cc(CN2CCc3c(cc(Cn4ccn(C)c4=N)cc3-c3nc(C)cn3C)C2=O)cc(OC)c1 [Example 153, 2-(3,5-Dimethoxybenzyl)-5-(1,4-dimethyl-1H-imidazol-2-yl)-7-((2-imino-3-methyl-2,3-dihydro-1H-imidazol-1-yl)methyl)-3,4-dihydroisoquinolin-1(2H)-one] | 9.43
2 | COc1cc(CN2CCc3c(cc(Cn4ccn(C)c4=N)cc3-c3cc(C)nc(C)c3)C2=O)cc(OC)c1 [Example 154, 2-(3,5-Dimethoxybenzyl)-5-(2,6-dimethylpyridin-4-yl)-7-((2-imino-3-methyl-2,3-dihydro-1H-imidazol-1-yl)methyl)-3,4-dihydroisoquinolin-1(2H)-one] | 10.30
3 | CCc1nccn1Cc1cc2c(c(-c3cc(C)nc(C)c3)c1)CCN(Cc1cc(OC)cc(OC)c1)C2=O [Example 155, 2-(3,5-Dimethoxybenzyl)-5-(2,6-dimethylpyridin-4-yl)-7-((2-ethyl-1H-imidazol-1-yl)methyl)-3,4-dihydroisoquinolin-1(2H)-one] | 9.89
4 | CCn1cc(-c2cc(Cn3ccnc3C)cc3c2CCN([C@@H](C)c2cc(OC)ccn2)C3=O)c(C(F)(F)F)n1 [Example 156, (S)-5-(1-Ethyl-3-(trifluoromethyl)-1H-pyrazol-4-yl)-2-(1-(4-methoxypyridin-2-yl)ethyl)-7-((2-methyl-1H-imidazol-1-yl)methyl)-3,4-dihydroisoquinolin-1(2H)-one] | > 10.30
5 | Cc1cncc(CN2CCc3c(cc(Cn4ccnc4C)cc3-c3cn(C)nc3C(F)(F)F)C2=O)c1 [Example 157, 7-((2-Methyl-1H-imidazol-1-yl)methyl)-5-(1-methyl-3-(trifluoromethyl)-1H-pyrazol-4-yl)-2-((5-methylpyridin-3-yl)methyl)-3,4-dihydroisoquinolin-1(2H)-one] | > 10.30
6 | CCn1cc(-c2cc(Cn3ccnc3C3CC3)cc3c2CCN([C@@H](C)c2cc(OC)ccn2)C3=O)c(C(F)(F)F)n1 [Example 159, (S)-7-((2-Cyclopropyl-1H-imidazol-1-yl)methyl)-5-(1-ethyl-3-(trifluoromethyl)-1H-pyrazol-4-yl)-2-(1-(4-methoxypyridin-2-yl)ethyl)-3,4-dihydroisoquinolin-1(2H)-one] | > 10.30
7 | CCn1cc(-c2cc(Cn3ccnc3)cc3c2CCN([C@@H](C)c2cc(OC)ccn2)C3=O)c(C(F)(F)F)n1 [Example 160, (S)-7-((1H-Imidazol-1-yl)methyl)-5-(1-ethyl-3-(trifluoromethyl)-1H-pyrazol-4-yl)-2-(1-(4-methoxypyridin-2-yl)ethyl)-3,4-dihydroisoquinolin-1(2H)-one] | > 10.30
8 | CCn1cc(-c2cc(Cn3ccnc3NC)cc3c2CCN([C@@H](C)c2cc(OC)ccn2)C3=O)c(C(F)(F)F)n1 [Example 161, (S)-5-(1-Ethyl-3-(trifluoromethyl)-1H-pyrazol-4-yl)-2-(1-(4-methoxypyridin-2-yl)ethyl)-7-((2-(methylamino)-1H-imidazol-1-yl)methyl)-3,4-dihydroisoquinolin-1(2H)-one] | > 10.30
9 | CCn1cc(-c2cc(Cn3ccnc3C(C)C)cc3c2CCN([C@@H](C)c2cc(OC)ccn2)C3=O)c(C(F)(F)F)n1 [Example 162, (S)-5-(1-Ethyl-3-(trifluoromethyl)-1H-pyrazol-4-yl)-7-((2-isopropyl-1H-imidazol-1-yl)methyl)-2-(1-(4-methoxypyridin-2-yl)ethyl)-3,4-dihydroisoquinolin-1(2H)-one] | 8.60
10 | Cc1cc([C@H](C)N2CCc3c(cc(Cn4ccnc4C)cc3-c3cn(C)nc3C(F)(F)F)C2=O)ncc1F [Example 163, (S)-2-(1-(5-fluoro-4-methylpyridin-2-yl)ethyl)-7-((2-methyl-1H-imidazol-1-yl)methyl)-5-(1-methyl-3-(trifluoromethyl)-1H-pyrazol-4-yl)-3,4-dihydroisoquinolin-1(2H)-one] | > 10.30
11 | CCc1nccn1Cc1cc2c(c(-c3cn(C)nc3C(F)(F)F)c1)CCN([C@@H](C)c1cc(C)cc(C)n1)C2=O [Example 164, (S)-2-(1-(4,6-Dimethylpyridin-2-yl)ethyl)-7-((2-ethyl-1H-imidazol-1-yl)methyl)-5-(1-methyl-3-(trifluoromethyl)-1H-pyrazol-4-yl)-3,4-dihydroisoquinolin-1(2H)-one] | > 10.30
12 | Cc1cc(C)nc([C@H](C)N2CCc3c(cc(Cn4ccnc4C)cc3-c3cn(C)nc3C(F)(F)F)C2=O)c1 [Example 165, (S)-2-(1-(4,6-Dimethylpyridin-2-yl)ethyl)-7-((2-methyl-1H-imidazol-1-yl)methyl)-5-(1-methyl-3-(trifluoromethyl)-1H-pyrazol-4-yl)-3,4-dihydroisoquinolin-1(2H)-one] | > 10.30
13 | Cc1cc(C)nc([C@@H](C)N2CCc3c(cc(Cn4ccnc4C)cc3-c3cn(C)nc3C(F)(F)F)C2=O)c1 [Example 166, (R)-2-(1-(4,6-Dimethylpyridin-2-yl)ethyl)-7-((2-methyl-1H-imidazol-1-yl)methyl)-5-(1-methyl-3-(trifluoromethyl)-1H-pyrazol-4-yl)-3,4-dihydroisoquinolin-1(2H)-one] | > 10.30
14 | Cc1nccn1Cc1cc2c(c(-c3cn(C)nc3C(F)(F)F)c1)CCN(CC1CCCOC1)C2=O (stereo not drawn) [Example 167, 7-((2-Methyl-1H-imidazol-1-yl)methyl)-5-(1-methyl-3-(trifluoromethyl)-1H-pyrazol-4-yl)-2-((tetrahydro-2H-pyran-3-yl)methyl)-3,4-dihydroisoquinolin-1(2H)-one] | 9.28
15 | COc1ccnc([C@H](C)N2CCc3c(cc(Cn4ccnc4C)cc3-c3ccc(F)cc3C)C2=O)c1 [Example 168, (S)-5-(4-Fluoro-2-methylphenyl)-2-(1-(4-methoxypyridin-2-yl)ethyl)-7-((2-methyl-1H-imidazol-1-yl)methyl)-3,4-dihydroisoquinolin-1(2H)-one] | > 10.30
16 | Cc1nccn1Cc1cc2c(c(-c3cn(C)nc3C(F)(F)F)c1)CCN(CC1CCCCO1)C2=O (stereo not drawn) [Example 169, 7-((2-Methyl-1H-imidazol-1-yl)methyl)-5-(1-methyl-3-(trifluoromethyl)-1H-pyrazol-4-yl)-2-((tetrahydro-2H-pyran-2-yl)methyl)-3,4-dihydroisoquinolin-1(2H)-one] | 8.96
17 | Cc1nccn1Cc1cc2c(c(-c3cn(C)nc3C(F)(F)F)c1)CCN(Cc1ccc3c(c1)OCO3)C2=O [Example 170, 2-(Benzo[d][1,3]dioxol-5-ylmethyl)-7-((2-methyl-1H-imidazol-1-yl)methyl)-5-(1-methyl-3-(trifluoromethyl)-1H-pyrazol-4-yl)-3,4-dihydroisoquinolin-1(2H)-one] | 9.82
18 | Cc1nccn1Cc1cc2c(c(-c3cn(C)nc3C(F)(F)F)c1)CCN(CC1CCCCN1C)C2=O (stereo not drawn) [Example 171, 7-((2-Methyl-1H-imidazol-1-yl)methyl)-5-(1-methyl-3-(trifluoromethyl)-1H-pyrazol-4-yl)-2-((1-methylpiperidin-2-yl)methyl)-3,4-dihydroisoquinolin-1(2H)-one] | 8.92
19 | Cc1nccn1Cc1cc2c(c(-c3cn(C)nc3C(F)(F)F)c1)CCN(CC1CCC(=O)N(C)C1)C2=O (stereo not drawn) [Example 172, 7-((2-Methyl-1H-imidazol-1-yl)methyl)-5-(1-methyl-3-(trifluoromethyl)-1H-pyrazol-4-yl)-2-((1-methyl-6-oxopiperidin-3-yl)methyl)-3,4-dihydroisoquinolin-1(2H)-one] | > 10.30
20 | Cc1nccn1Cc1cc2c(c(-c3cn(C)nc3C(F)(F)F)c1)CCN(CC1CCOCC1)C2=O [Example 173, 7-((2-Methyl-1H-imidazol-1-yl)methyl)-5-(1-methyl-3-(trifluoromethyl)-1H-pyrazol-4-yl)-2-((tetrahydro-2H-pyran-4-yl)methyl)-3,4-dihydroisoquinolin-1(2H)-one] | 9.20
21 | Cc1nnc(CN2CCc3c(cc(Cn4ccnc4C)cc3-c3cn(C)nc3C(F)(F)F)C2=O)s1 [Example 174, 2-((5-Methyl-1,3,4-thiadiazol-2-yl)methyl)-7-((2-methyl-1H-imidazol-1-yl)methyl)-5-(1-methyl-3-(trifluoromethyl)-1H-pyrazol-4-yl)-3,4-dihydroisoquinolin-1(2H)-one] | 10.12
22 | CCc1ccnc([C@H](C)N2CCc3c(cc(Cn4ccnc4C)cc3-c3cn(C)nc3C(F)(F)F)C2=O)c1 [Example 175, (S)-2-(1-(4-Ethylpyridin-2-yl)ethyl)-7-((2-methyl-1H-imidazol-1-yl)methyl)-5-(1-methyl-3-(trifluoromethyl)-1H-pyrazol-4-yl)-3,4-dihydroisoquinolin-1(2H)-one] | > 10.30
23 | Cc1nccn1Cc1cc2c(c(-c3cn(C)nc3C(F)(F)F)c1)CCN(Cc1ccc3ccccc3n1)C2=O [Example 176, 7-((2-Methyl-1H-imidazol-1-yl)methyl)-5-(1-methyl-3-(trifluoromethyl)-1H-pyrazol-4-yl)-2-(quinolin-2-ylmethyl)-3,4-dihydroisoquinolin-1(2H)-one] | > 10.30
24 | CCn1cc(-c2cc(Cn3ccnc3C)cc3c2CCN([C@H](c2cc(C)ccn2)C2CC2)C3=O)c(C(F)(F)F)n1 [Example 177, (S)-2-(Cyclopropyl(4-methylpyridin-2-yl)methyl)-5-(1-ethyl-3-(trifluoromethyl)-1H-pyrazol-4-yl)-7-((2-methyl-1H-imidazol-1-yl)methyl)-3,4-dihydroisoquinolin-1(2H)-one] | > 10.30
25 | CCn1cc(-c2cc(Cn3cnc(C)c3C)cc3c2CCN([C@@H](C)c2cc(OC)ccn2)C3=O)c(C(F)(F)F)n1 [Example 178, (S)-7-((4,5-Dimethyl-1H-imidazol-1-yl)methyl)-5-(1-ethyl-3-(trifluoromethyl)-1H-pyrazol-4-yl)-2-(1-(4-methoxypyridin-2-yl)ethyl)-3,4-dihydroisoquinolin-1(2H)-one] | > 10.30
26 | CCn1cc(-c2cc(Cn3ccnc3C#N)cc3c2CCN([C@@H](C)c2cc(OC)ccn2)C3=O)c(C(F)(F)F)n1 [Example 179] | 8.62
27 | Cc1nccn1Cc1cc2c(c(-c3cn(C)nc3C(F)(F)F)c1)CCN(Cc1ccccn1)C2=O [Example 180, 7-((2-Methyl-1H-imidazol-1-yl)methyl)-5-(1-methyl-3-(trifluoromethyl)-1H-pyrazol-4-yl)-2-(pyridin-2-ylmethyl)-3,4-dihydroisoquinolin-1(2H)-one] | 9.66

Source: patent US11999716B2, “WDR5 inhibitors and modulators” (priority 2018, dated 2024)
